Reference: the RNAGym collection of RNA variant scans (doi:10.7554/elife.90254)
The source gives no read counts; variants with many changes may rest on few reads.

B1: LINE1-mini (parent)
chain: GGCAGAGCUCAACACAGCGUGGCAAAGUGGCUGUGGCUAGACUGCC

Variants of: B1
Assay: self-cleavage, relative activity (ratio to wild type); higher = more cleavage; in vitro, sequencing; the parent is a self-cleaving ribozyme

Variant	self-cleavage
C8U C18A G35U	0.13
C8U G30A U43G	0.21
C8U A12G G17C A24C A25C G35U C42U	0.02
C8U C10U A12G A26U	0.01
C8U G30U G35U	0.22
C8U C18G G44U	0.08
C8U A12C G17A A39U	0.02
C8U C10G G36U C46U	0.02
C8U A16C G17U U34C	0.12
C8U C18A U20C G22A	0.02
C8U G21C G29A G30A	0.35
C8U A14C G30U	0.15
C8U A25C G36A	0.06
C8U A12U C13A A41G	0.17
C8U G22A G27C G36C C46A	0.02
C8U A12G G19U	0.01
C8U C37A G40C	0.08
C8U A14C A25G U28A U32G G36A C37A C42A	0.17
C8U C18A A26U	0.02
C8U G17U G30A A41C G44U	0.12
C8U U9G C10A C42U	0.02
C8U C23G C42G G44A	0.25
C8U U9C C13G G33C	0.01
C8U A14U U28C	0.08

Variant	self-cleavage
C8U C13G G19A C23G A24G	0.12
C8U C15A U28A C45G	0.32
C8U U20C G30C	0.02
C8U G19C G30A G36A	0.31
C8U U9A A12U	0.14
C8U C13U G36C	0.07
C8U A16C U38C	0.42
C8U A12G G22U G30A U38G	0.15
C8U U9C A25G A26G G35A G36U C46G	0.02
C8U A12U C31U	0.18
C8U C15U G17C U20A G27A G36C	0.04
C8U A26C U38G U43C	0.04
C8U A12U A14C A25U A39C	0.1
C8U C23U G36C C37A	0.27
C8U C15G A24G	0.02
C8U U34C G40U	0.11
C8U A41G G44U	0.29
C8U A12U A24U G30U	0.46
C8U C10G C31A	0.01
C8U A12C A14U G21U U28A	0.01
C8U C23U G40C	0.09
C8U C13G G35A	0.31
C8U A16U G30A	0.39
C8U A24G C31G G40U	0.02

Variant	self-cleavage
C8U C31G C46U	0.13
C8U U9G C15U C18A C31G G40C	0.04
C8U C15G C18A	0.01
C8U C18A G36U G44A C46U	0.16
C8U G36C A41G	0.46
C8U C23U C37A	0.13
C8U C23U C37G	0.02
C8U G17U C42G C46G	0.09
C8U U34C G36A G40U	0.09
C8U G33C G44A	0.04
C8U U9G C10G U20C G22U U28A U38G	0
C8U C13G A24C U28A	0.42
C8U C15U U20G G44U	0.1
C8U C18A U34C	0.05
C8U C15U U32G	0.05
C8U G29C G36A	0.12
C8U U9C A12C C23A	0.01
C8U A26G U32G	0.09
C8U G27U G36A	0.3
C8U U28C U34A	0.18
C8U C15A A16C U34G C37G	0.04
C8U C15G G33C C37G	0.05
C8U A12U U32A C37U	0
C8U U9C C10G G27C	0.01

Variant	self-cleavage
C8U C18G G29C A39U C46U	0.01
C8U G30C C46G	0.01
C8U A16G U20G	0.02
C8U G40A U43C	0.12
C8U G19U G29U G30U G40U	0.72
C8U G17A G30A	0.44
C8U C18A G22C G35A C37A	0.07
C8U C13A G19A G40U	0.25
C8U C15G U20C G21U U28C	0.01
C8U C10A G22A	0.01
C8U G19C A26U C31U G33U U34C	0.26
C8U G17U A24C C46A	0.13
C8U C15G C18A G30U C31A	0.03
C8U G29C G44C	0.04
C8U U9A C15G	0.28
C8U G29C A39G G40U	0
C8U U28A G30A C31U	1.06
C8U U9G U32A G33A A41G	0.04
C8U A16C C42G	0.09
C8U C13G G27U	0.08
C8U A39G A41U	0.01
C8U C18G A26C	0.05
C8U A25U A26G	0.15
C8U A16G G30A	0.14

Variant	self-cleavage
C8U A14U G22A	0.07
C8U A12G G21C A26C	0.15
C8U C13A C18U C46U	0.08
C8U U9C A12G G19A C23A U38G A39C A41U C42G	0
C8U G17C A24G U32A	0.02
C8U C10G A14C C23A A26G U32G	0.01
C8U C18U G33A	0.02
C8U A16U G30C C42A	0.07
C8U C18U C37U C45U	0.22
C8U G33C C37A	0.02
C8U C23A A26C G33U	0.08
C8U A14C G21C G33U	0.01
C8U U28A A41G C45A	0.39
C8U A12U A14U U28G G40U	0.02
C8U C10U G40U	0.08
C8U U9G G17C G27A U32C	0.04
C8U C18A U20C G21A A26C C37U	0.02
C8U A24U G40U	0.12
C8U G33U U43C C45U	0.19
C8U C18A G21U A24G G29U	0.03
C8U C23U C45A	0.58
C8U C23U G30C G33A	0.29
C8U G19A C31A U32G G33A G44U	1
C8U C10A A26C A41G	0.04

Variant	self-cleavage
C8U C15U C23A C42G	0.13
C8U U20A U28C G35A G36A C45U	0.03
C8U A24G G29U U32C	0.05
C8U U9A A16U G30U U32A A39U	0.07
C8U U9A G22U U28C A39G U43G C46A	0.04
C8U A24G U28A G44U	0.18
C8U G22U U28C C42A	0.02
C8U C18G G33A	0.16
C8U G35U G44A	0.26
C8U A12U G17U U34C	0.14
C8U A16U G27A	0.07
C8U C42A C45G	0.14
C8U A24G G30U U34A A41U	0.09
C8U G19C G22C	0.08
C8U A14G C23G U38C	0.1
C8U A11U G30A	0.02
C8U U9C C31U U34C	0.03
C8U C15U C18U U34G C42G	0.18
C8U A24U G35C C45A	0.18
C8U C13U C23A	0.05
C8U A16U C18U G29U G30A	0.08
C8U U32A G40U A41U	0.31
C8U G29U G35C C37G	0.41
C8U G17C U20G A25G G33A	0.11

Variant	self-cleavage
C8U A24G A39C	0.05
C8U A12C C13A G40U C46U	0.05
C8U A14G G29U	0.17
C8U U9C C10A C23G G29U U32G G40U	0.03
C8U G21U C42U	0.26
C8U U32G U43A C46G	0.08
C8U A14G C15U A24G C37U	0.13
C8U G27U G33U	0.22
C8U A12C G22U C37U U38C	0.01
C8U G19C G22C A41G	0.04
C8U C37G G44C	0.04
C8U G21U A25C G40U	0.18
C8U G27U U34G	0.1
C8U G35U C37U U38C	0.2
C8U U9A C10G	0.05
C8U G30U C42G	0.27
C8U C10U G27U	0.06
C8U G21U G22U G30U A41U	0.26
C8U U9G C46G	0.14
C8U G29U C45G	0.79
C8U A25G C46U	0.04
C8U A16C G35C C37U	0.21
C8U G17A A25U G33U C42A C46G	0.1
